Test results as given in publication PMC9911399, “Two distinct binding modes provide the RNA-binding protein RbFox with extraordinary sequence specificity”.
Substitutions are numbered along the chain they refer to; changes in the protein carry UniProt numbers. The list shows a part of the results.

T1: RBFOX1 RRM RbFoxmut (Fox-RRM*) (Homo sapiens, UniProt Q9NWB1 109-208, R118D;E147R;N151S;E152T)
T1 sequence: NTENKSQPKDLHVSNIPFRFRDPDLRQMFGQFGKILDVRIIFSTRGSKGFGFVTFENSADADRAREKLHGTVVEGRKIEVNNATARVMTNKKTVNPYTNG

B1: ACAUCCC (DNA:RNA)
RNA: GGGAGACCGGAAUUCAGAUUGUCCACAUCCCUUAAAUCCCGUCGUAGCCACCA
DNA 1: CAATCTGAATTCCGGTCTCCC
DNA 2: TGGTGGCTACGACGGGATT
B2: CCAAGAG (DNA:RNA)
RNA: B1 RNA with A25C, U28A, C29G, C30A, C31G
DNA 1: CAATCTGAATTCCGGTCTCCC
DNA 2: TGGTGGCTACGACGGGATT
B3: UCCACAA (DNA:RNA)
RNA: B1 RNA with A25U, A27C, U28A, C30A, C31A
DNA 1: CAATCTGAATTCCGGTCTCCC
DNA 2: TGGTGGCTACGACGGGATT
B4: AUGAGUU (DNA:RNA)
RNA: B1 RNA with C26U, A27G, U28A, C29G, C30U, C31U
DNA 1: CAATCTGAATTCCGGTCTCCC
DNA 2: TGGTGGCTACGACGGGATT
B5: UUGUAGA (DNA:RNA)
RNA: B1 RNA with A25U, C26U, A27G, C29A, C30G, C31A
DNA 1: CAATCTGAATTCCGGTCTCCC
DNA 2: TGGTGGCTACGACGGGATT
B6: AAUAUGC (DNA:RNA)
RNA: B1 RNA with C26A, A27U, U28A, C29U, C30G
DNA 1: CAATCTGAATTCCGGTCTCCC
DNA 2: TGGTGGCTACGACGGGATT
B7: CUCUAGU (DNA:RNA)
RNA: B1 RNA with A25C, C26U, A27C, C29A, C30G, C31U
DNA 1: CAATCTGAATTCCGGTCTCCC
DNA 2: TGGTGGCTACGACGGGATT
B8: UUGGACC (DNA:RNA)
RNA: B1 RNA with A25U, C26U, A27G, U28G, C29A
DNA 1: CAATCTGAATTCCGGTCTCCC
DNA 2: TGGTGGCTACGACGGGATT
B9: GCGACGU (DNA:RNA)
RNA: B1 RNA with A25G, A27G, U28A, C30G, C31U
DNA 1: CAATCTGAATTCCGGTCTCCC
DNA 2: TGGTGGCTACGACGGGATT
B10: CACAGUC (DNA:RNA)
RNA: B1 RNA with A25C, C26A, A27C, U28A, C29G, C30U
DNA 1: CAATCTGAATTCCGGTCTCCC
DNA 2: TGGTGGCTACGACGGGATT
B11: UGUGAAU (DNA:RNA)
RNA: GGGAGACCGGAAUUCAGAUUGUCCUGUGAAUUUAAAUCCCGUCGUAGCCACCA
DNA 1: CAATCTGAATTCCGGTCTCCC
DNA 2: TGGTGGCTACGACGGGATT
B12: AAGGCGU (DNA:RNA)
RNA: B1 RNA with C26A, A27G, U28G, C30G, C31U
DNA 1: CAATCTGAATTCCGGTCTCCC
DNA 2: TGGTGGCTACGACGGGATT
B13: GGCAAUU (DNA:RNA)
RNA: B11 RNA with U25G, U27C, G28A, A30U
DNA 1: CAATCTGAATTCCGGTCTCCC
DNA 2: TGGTGGCTACGACGGGATT
B14: GUGCCGA (DNA:RNA)
RNA: B1 RNA with A25G, C26U, A27G, U28C, C30G, C31A
DNA 1: CAATCTGAATTCCGGTCTCCC
DNA 2: TGGTGGCTACGACGGGATT
B15: GGAGAUC (DNA:RNA)
RNA: B11 RNA with U25G, U27A, A30U, U31C
DNA 1: CAATCTGAATTCCGGTCTCCC
DNA 2: TGGTGGCTACGACGGGATT
B16: GUGCUGU (DNA:RNA)
RNA: B11 RNA with U25G, G26U, U27G, G28C, A29U, A30G
DNA 1: CAATCTGAATTCCGGTCTCCC
DNA 2: TGGTGGCTACGACGGGATT
B17: GCUGGUC (DNA:RNA)
RNA: B1 RNA with A25G, A27U, U28G, C29G, C30U
DNA 1: CAATCTGAATTCCGGTCTCCC
DNA 2: TGGTGGCTACGACGGGATT
B18: CUAUUAG (DNA:RNA)
RNA: B1 RNA with A25C, C26U, C29U, C30A, C31G
DNA 1: CAATCTGAATTCCGGTCTCCC
DNA 2: TGGTGGCTACGACGGGATT
B19: CUUGCGU (DNA:RNA)
RNA: B11 RNA with U25C, G26U, A29C, A30G
DNA 1: CAATCTGAATTCCGGTCTCCC
DNA 2: TGGTGGCTACGACGGGATT
B20: UGCCGCA (DNA:RNA)
RNA: B11 RNA with U27C, G28C, A29G, A30C, U31A
DNA 1: CAATCTGAATTCCGGTCTCCC
DNA 2: TGGTGGCTACGACGGGATT
B21: CUCACGG (DNA:RNA)
RNA: B1 RNA with A25C, C26U, A27C, U28A, C30G, C31G
DNA 1: CAATCTGAATTCCGGTCTCCC
DNA 2: TGGTGGCTACGACGGGATT
B22: AUGGAAU (DNA:RNA)
RNA: B11 RNA with U25A, G26U, U27G
DNA 1: CAATCTGAATTCCGGTCTCCC
DNA 2: TGGTGGCTACGACGGGATT
B23: GGAUCCG (DNA:RNA)
RNA: B1 RNA with A25G, C26G, C31G
DNA 1: CAATCTGAATTCCGGTCTCCC
DNA 2: TGGTGGCTACGACGGGATT
B24: UGACGAA (DNA:RNA)
RNA: B11 RNA with U27A, G28C, A29G, U31A
DNA 1: CAATCTGAATTCCGGTCTCCC
DNA 2: TGGTGGCTACGACGGGATT
B25: CGCGGAA (DNA:RNA)
RNA: B11 RNA with U25C, U27C, A29G, U31A
DNA 1: CAATCTGAATTCCGGTCTCCC
DNA 2: TGGTGGCTACGACGGGATT
B26: GGUAAGA (DNA:RNA)
RNA: B11 RNA with U25G, G28A, A30G, U31A
DNA 1: CAATCTGAATTCCGGTCTCCC
DNA 2: TGGTGGCTACGACGGGATT
B27: AAGAGCG (DNA:RNA)
RNA: B1 RNA with C26A, A27G, U28A, C29G, C31G
DNA 1: CAATCTGAATTCCGGTCTCCC
DNA 2: TGGTGGCTACGACGGGATT
B28: AGUCCUG (DNA:RNA)
RNA: B1 RNA with C26G, A27U, U28C, C30U, C31G
DNA 1: CAATCTGAATTCCGGTCTCCC
DNA 2: TGGTGGCTACGACGGGATT
B29: AUACCGG (DNA:RNA)
RNA: B1 RNA with C26U, U28C, C30G, C31G
DNA 1: CAATCTGAATTCCGGTCTCCC
DNA 2: TGGTGGCTACGACGGGATT
B30: GGCCGGC (DNA:RNA)
RNA: B1 RNA with A25G, C26G, A27C, U28C, C29G, C30G
DNA 1: CAATCTGAATTCCGGTCTCCC
DNA 2: TGGTGGCTACGACGGGATT
B31: UCGCGCU (DNA:RNA)
RNA: B1 RNA with A25U, A27G, U28C, C29G, C31U
DNA 1: CAATCTGAATTCCGGTCTCCC
DNA 2: TGGTGGCTACGACGGGATT

Each binder was assayed against T1, RBFOX1 RRM RbFoxmut (Fox-RRM*) (assay: EMSA; HiTS-Eq, 1 nM pool, 10 min; buffer printed only for the single-RNA assays: 10 mM Tris pH 7.5, 150 mM NaCl, 3.4 mM EDTA, 0.001% NP-40, 30 C). Conditions: tags: His6 N-terminal (pET28a); label: 5' 32P.
How it was run: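 Relative association constants, normalised to the cognate motif, were derived by comparing read counts of each RNA species with those of the control reaction. The RNA sequenced was the free fraction, separated by 8% native PAGE after a 10 min equilibration in 50 µL of 1 nM 5′-radiolabelled RNA (7 randomized nucleotides) with increasing concentrations of purified wild-type or mutant RbFox RRM.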

Binder	binding signal
B1	0.0641 KA relative to UGCAUGU
B2	0.127 KA relative to UGCAUGU
B3	0.061 KA relative to UGCAUGU
B4	0.132 KA relative to UGCAUGU
B5	0.142 KA relative to UGCAUGU
B6	0.0929 KA relative to UGCAUGU
B7	0.133 KA relative to UGCAUGU
B8	0.0605 KA relative to UGCAUGU
B9	0.115 KA relative to UGCAUGU
B10	0.0427 KA relative to UGCAUGU
B11	0.171 KA relative to UGCAUGU
B12	0.105 KA relative to UGCAUGU
B13	0.0634 KA relative to UGCAUGU
B14	0.0824 KA relative to UGCAUGU
B15	0.155 KA relative to UGCAUGU
B16	0.164 KA relative to UGCAUGU

Binder	binding signal
B17	0.188 KA relative to UGCAUGU
B18	0.144 KA relative to UGCAUGU
B19	0.154 KA relative to UGCAUGU
B20	0.139 KA relative to UGCAUGU
B21	0.0897 KA relative to UGCAUGU
B22	0.149 KA relative to UGCAUGU
B23	0.153 KA relative to UGCAUGU
B24	0.11 KA relative to UGCAUGU
B25	0.131 KA relative to UGCAUGU
B26	0.0669 KA relative to UGCAUGU
B27	0.131 KA relative to UGCAUGU
B28	0.101 KA relative to UGCAUGU
B29	0.0621 KA relative to UGCAUGU
B30	0.0713 KA relative to UGCAUGU
B31	0.0892 KA relative to UGCAUGU
